# Measurements published in PubChem BioAssay AID504832 (National Center for Advancing Translational Sciences (NCATS), 2011).
# The campaign covered roughly 310,000 compounds. About 18,000 (5.8%) were called active. Inconclusive results, whose numbers are uncertain, are shown with a selection of clear calls. Calls come from the whole dose curve; as a rule, active = well fitted inhibition curve with a large enough effect; inconclusive = small, poorly fitted or top-dose-only effect, or another doubt; inactive = no such curve, though single readings can be large or run the other way. No potency is given beside an inconclusive call; the fits are too rough.
# Assay: Primary qHTS for delayed death inhibitors of the malarial parasite plastid, 48 hour incubation
# Settings: P. falciparum luciferase growth in erythrocytes; series mostly up to 28.7 µM; activity change, negative = inhibition: at the top concentration
# Outline: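 Here the parasites carry a stable luciferase gene and grow inside erythrocytes in Albumax-based RPMI medium with compound for one erythrocytic cycle. Activity is scored as loss of luminescent signal.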
# % is set by controls: 0 for no effect and ±100 for the full control effect; potency is the fitted concentration of half-maximal effect; tags give direction and shape of the fitted curve.
SMILES,Potency,"activity change, negative = inhibition"
Cc1cccnc1CN1CCN(Cc2nc(Cc3cccc(F)c3)no2)CC1,"inconclusive [inhibitor, single point]",–
c1ccc(CN2C3=NCCCN3c3ccccc32)cc1,active: 8.28 µM,–
COc1ccc(Cl)cc1NC(=O)CSc1nnc(-c2ccco2)o1,–,inactive: 20.2%
COC(=O)N/N=C/c1cc(C)n(-c2ccc(F)cc2)c1C,–,inactive: -2.49%
C#CCOCCOCCOCCNc1nc(N2CCN(C(=O)CCCCCCCCCCNC(=O)[C@@H](CCSC)n3cc(CCO)nn3)CC2)nc(N2CCN(C(=O)CCCCCCCCCCNC(=O)[C@@H]([C@H](C)O)n3cc(C)nn3)CC2)n1,active: 0.147 µM,–
O=C(Nc1cc(Br)ccc1O)c1cnn2c(C(F)F)cc(C3CC3)nc12,active: 4.15 µM,–
Cc1ccc2cc(CN(Cc3ccc4c(c3)OCO4)Cc3nnnn3Cc3ccco3)c(=O)[nH]c2c1C,active: 8.28 µM,–
Cc1ccc(C(=O)C(OC(=O)CNS(=O)(=O)c2ccccc2)c2ccccc2)cc1 (centres undefined),"inconclusive [inhibitor, partial curve, poor fit]",–
Cc1ccc(-n2c(SCC(=O)NCC3CCCO3)nc3n[nH]c(C)c3c2=N)cc1Cl (centres undefined),"inconclusive [inhibitor, single point]",–
Cc1nc(N2CCOCC2)c2c(C)c(C(=O)Nc3ccc(C(F)(F)F)cc3)sc2n1,"inconclusive [inhibitor, partial curve]",–
O=C(NCCC(=O)N(CCc1ccccc1)Cc1ccccc1)c1ccccc1Cl,"inconclusive [inhibitor, partial curve, poor fit]",–
O=C(O)C(Cc1ccccc1)n1cccc1 (centres undefined),"inconclusive [inhibitor, single point]",–
O=C(NCc1nc2ccccc2[nH]1)C1=C[C@@H](C2CC2)C[C@@H](OCc2ccc(CO)cc2)O1,"inconclusive [inhibitor, single point]",–
O=C(NC(=S)Nc1ccccn1)c1cccc([N+](=O)[O-])c1,–,inactive: -15%
CCCN1C(=O)/C(=C/c2nc3ccccc3c(=O)[nH]2)c2cc(C)ccc21,"inconclusive [inhibitor, partial curve, poor fit]",–
Cc1ccc(C(=O)Nc2cccc(NC(=O)c3ccc(C)o3)n2)o1,–,inactive: 28.3%
Cc1ccc(S(=O)(=O)NCC(=O)OCc2nnc(-c3ccccc3)o2)cc1C,–,inactive: 20.4%
Cc1ccn2c(=O)c(NC(=O)c3ccc(Br)o3)c(C)nc2c1,–,inactive: 2.6%
O=[N+]([O-])c1ccc(N2CCN(C(=S)NC3CCCCC3)CC2)cc1,active: 0.522 µM,–
